Hit rate of the full screen: of about 110,000 compounds, about 230 (0.21%) showed an effect of 50% or more. This is one part of the list.
These compounds were tested against DPAP1 (Plasmodium falciparum, UniProt Q8IIJ9) (assay: primary screen, percent inhibition; read by cleavage of a fluorogenic dipeptide substrate; higher = more effect of the substance).
Parameters: species or system P. falciparum D10 trophozoite lysates; single well
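Note: 30 min substrate incubation versus DMSO and 10 µM JCP410 controls.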

Sequence of DPAP1 (Q8IIJ9 whole entry, looked up): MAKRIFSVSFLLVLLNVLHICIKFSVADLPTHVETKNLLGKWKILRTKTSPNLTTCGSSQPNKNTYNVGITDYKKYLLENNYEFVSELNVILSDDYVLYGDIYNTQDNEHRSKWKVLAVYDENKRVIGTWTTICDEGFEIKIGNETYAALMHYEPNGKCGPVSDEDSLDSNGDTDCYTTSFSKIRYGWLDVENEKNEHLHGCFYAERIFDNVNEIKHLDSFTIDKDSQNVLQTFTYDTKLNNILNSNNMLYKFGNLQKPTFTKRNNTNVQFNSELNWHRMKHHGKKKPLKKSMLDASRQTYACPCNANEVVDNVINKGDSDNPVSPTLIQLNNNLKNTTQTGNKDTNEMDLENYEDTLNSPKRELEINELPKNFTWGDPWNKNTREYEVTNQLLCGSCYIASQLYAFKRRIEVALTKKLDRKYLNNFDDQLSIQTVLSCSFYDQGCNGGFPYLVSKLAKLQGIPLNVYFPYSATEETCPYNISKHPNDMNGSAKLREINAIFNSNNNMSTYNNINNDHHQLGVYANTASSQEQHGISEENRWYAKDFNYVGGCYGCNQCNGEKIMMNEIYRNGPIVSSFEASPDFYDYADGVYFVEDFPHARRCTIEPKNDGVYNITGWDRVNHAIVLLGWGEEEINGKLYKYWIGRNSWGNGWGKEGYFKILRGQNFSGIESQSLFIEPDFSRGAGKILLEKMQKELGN

SMILES | % Inhibition @ 10 uM
O=C(CCc1ccccc1)Nc1nc2nc(-c3ccccc3)cc(O)n2n1 | 0.401%
O=C(O)C1CC(c2ccccc2)=NCCS1 (stereo not shown) | -0.0372%
COc1cc(OC)c(OC)cc1/C=c1\sc2nnc(-c3ccccc3C)n2c1=O | 3.25%
COc1ccc(OC)c(N(CC(=O)Nc2cccc(Cl)c2)S(C)(=O)=O)c1 | -7.61%
CCN1C(=O)/C(=C/c2ccc[nH]2)C(=O)NC1=S | 1%
COc1ccc(/C=c2/[nH]c(=O)/c(=C\c3ccc(OC)c(OC)c3)[nH]c2=O)cc1OC | -0.736%
CN(C)c1ccc(CNC(C)(C)CO)cc1 | -5.26%
CCOc1c(Br)cc(/C=C(\C#N)c2nc3cc(Br)cnc3[nH]2)cc1OC | -1.26%
CCn1c(C(=O)N2CCC(C(=O)NCCCN3CCOCC3)CC2)cc2sccc21 | -1.53%
Cc1ccc(C)c(Cn2c3ccccc3c3cnn(CC(=O)NCCN4CCCCC4C)c(=O)c32)c1 (stereo not shown) | 1.8%
O=CNc1c(O)c2ccccc2oc1=O | 3.99%
O=[N+]([O-])c1ccc(O)c(CN2CCCCCCC2)c1 | -1.64%
CNC(=O)/C=C1\NC(C)(C)Cc2c1ccc1ccccc21 | 3.47%
CCCn1c(CN2CCC(C)CC2)nc2c1c(=O)n(C)c(=O)n2C | -4.14%
Cc1ccc(CNc2ccc(CNc3nc[nH]n3)cc2)cc1 | 1.84%
N#CCc1ccc(NC(=O)c2cccs2)cc1 | -0.303%
Cc1ccc(C(=O)C2=C(O)C(=O)N(CCOCCO)C2c2cccs2)cc1 (stereo not shown) | -6.75%
CCOC(=O)N1CCN(C(=O)c2cc3c(C)nc4ccccc4c3o2)CC1 | -0.0115%
CCCCN(CC)CCCNC(=O)C1c2ccccc2C(=O)N(C2CCCC2)C1c1cccs1 (stereo not shown) | -4.99%
O=C(Nc1ccccc1Cl)c1ccc([N+](=O)[O-])cc1Cl | -0.546%
CCOC(=O)c1cnc2sc(C(=O)OCC)c(C)c2c1O | 0.98%

SMILES | % Inhibition @ 10 uM
COCc1cc(C)nc(SCc2ccc(Br)cc2)c1C#N | 4.67%
Cc1c(Br)c(C(=O)Nc2cnn(Cc3c(F)cccc3Cl)c2)nn1C | 3.8%
Cc1cc(C)n(CC2CC(=O)N(c3ccc(Br)cc3)C2=O)n1 (stereo not shown) | -0.473%
CCNc1nc(NCC)nc(Nc2nc(C)c(C(=O)OCC)s2)n1 | 8.16%
CC1CCCC(NC(=O)CN(C)S(=O)(=O)c2c[nH]cn2)C1C (stereo not shown) | -0.0309%
C=CCNC(=O)CN(c1ccc(OC)cc1OC)S(C)(=O)=O | 1.52%
CSc1ccc(C2c3c(-c4ccccc4O)n[nH]c3C(=O)N2CC2CCCO2)cc1 (stereo not shown) | -4.95%
O=C(CCn1c(SCc2ccc(F)cc2)nc2c(sc3ccccc32)c1=O)NCC1CCCO1 (stereo not shown) | 0.66%
COc1cc2c(cc1OC)CC(C)(C)N=C2 | -1.22%
Cc1nc2nc(C)c(NS(=O)(=O)c3ccc(F)c(C)c3)c(O)n2n1 | 1.49%
Nc1nc(-c2ccc(Cl)cc2Cl)cs1 | -3.38%
CC(C)(C)c1sc(N)nc1-c1ccccc1 | -2.15%
Cc1cc(O)c(C2=Nc3cc(C(F)(F)F)ccc3SC(c3cccs3)C2)c(=O)o1 (stereo not shown) | -0.693%
COc1ccc(C2CC(C(F)(F)F)n3ncc(C(=O)NCc4ccccc4)c3N2)cc1 (stereo not shown) | 2.79%
CC1CCc2c(sc3ncn(Cc4ccc(Cl)cc4)c(=O)c23)C1 (stereo not shown) | -16.1%
Clc1ccccc1CNc1nc2ccccc2c2nc(-c3ccncc3)nn12 | -0.692%
CCSc1oc(-c2ccccc2)nc1S(=O)(=O)c1ccc(C)cc1 | -2.74%
COc1ccccc1NC(=O)C1=C(C)N=C2CC(C)(C)CC(O)=C2C1c1ccc(C)cc1 (stereo not shown) | 1.35%
CCOC(=O)C1=CN(Cc2ccc(OC)c(OC)c2)C=C(C(=O)OCC)C1c1ccc(OC)c(O)c1 | -5.05%
Cc1ccc2[nH]c(C)c(/C=C3/C(=N)N4C(=NC3=O)SN=C4S(C)(=O)=O)c2c1 | 1.85%
O=C(/C=C/c1ccccc1)C1=C(O)C(=O)OC12C(=O)c1ccccc1C2=O | 1.97%

SMILES | % Inhibition @ 10 uM
O=C1c2oc3ccccc3c(=O)c2C(c2ccc(OCc3ccccc3)cc2)N1c1nccs1 (stereo not shown) | -0.828%
CCO/C(O)=C1/C(C)=Nc2ncnn2C1c1ccc(OCc2ccccc2)cc1 (stereo not shown) | -3.98%
COc1ccc(C2CC(c3ccccc3O)=NN2)cc1 (stereo not shown) | 1.37%
COc1ccc(NC(=O)CN2C(=O)S/C(=C/c3ccc4c(c3)n(C)c(=O)n4C)C2=O)cc1 | 3.01%
Cc1ccsc1/C=C1\NC(=O)N(Cc2ccc(Cl)cc2)C1=O | -5.3%
Cn1c(=O)c2c(nc(SCc3ccccc3F)n2C)n(C)c1=O | -6.37%
CN(C)CCCNCC(O)Cn1c2ccc(Cl)cc2c2cc(Cl)ccc21 (stereo not shown) | -6.95%
CCC(C(=O)N1CCN(c2ccc([N+](=O)[O-])cc2)CC1)c1ccccc1 (stereo not shown) | 1.13%
c1ccc2c(c1)ncn2Cc1nnc2sc(-c3ccc4c(c3)OCCO4)nn12 | 45%
COc1ccc(CN2CCN(c3ccc(Cl)cc3)CC2)cc1OC | 6.18%
CCOC(=O)N1CCN(c2cc(C)nc3nc(-c4ccc(C(C)(C)C)cc4)nn23)CC1 | 5.54%
CC(C)C[C@H](NC(=O)c1ccc(CN2CCN(C)CC2)cc1)C(=O)NCC#N | -5.64%
COc1ccc(-c2nc(CS(=O)(=O)CC(=O)NCCc3cc(OC)ccc3OC)c(C)o2)cc1 | 3.19%
O=C(NC1CCCCCC1)C1CCCN1S(=O)(=O)c1ccc(Cl)cc1 (stereo not shown) | 4.11%
CN1CCN(C(=O)C2CCCN(c3ncnc4c3nc3n4CCCCC3)C2)CC1 (stereo not shown) | 4.83%
CC(Oc1cccc(Cl)c1)C(=O)Nc1sc2c(c1C(N)=O)CCCCC2 (stereo not shown) | 61.2%
CCC(C(=O)NC(C)(C)C)n1nc(C)c2sc3ccccc3c2c1=O (stereo not shown) | -3.93%
Cc1ccc(N(CC(=O)NCCSc2ccc(Cl)cc2)S(C)(=O)=O)cc1 | -0.28%
Cc1cc(NC(=O)CSc2nc(-c3ccco3)cc(C(F)(F)F)n2)no1 | -0.318%

Reference: article PMC6919601, “Identification of Plasmodium dipeptidyl aminopeptidase allosteric inhibitors by high throughput screening” (PLoS ONE, 2019)
